Test results from article PMC4336329 (PLoS ONE, 2015).
About 2,200 (0.71%) of roughly 310,000 compounds showed an effect of 50% or more. Effects have a minus sign here. This is one part of the list.

target: human ether-à-go-go-related gene (hERG) potassium channel (human, UniProt Q12809); experiment: primary screen, population patch clamp on CHO cells stably expressing hERG
Sequence (Q12809 whole entry, looked up): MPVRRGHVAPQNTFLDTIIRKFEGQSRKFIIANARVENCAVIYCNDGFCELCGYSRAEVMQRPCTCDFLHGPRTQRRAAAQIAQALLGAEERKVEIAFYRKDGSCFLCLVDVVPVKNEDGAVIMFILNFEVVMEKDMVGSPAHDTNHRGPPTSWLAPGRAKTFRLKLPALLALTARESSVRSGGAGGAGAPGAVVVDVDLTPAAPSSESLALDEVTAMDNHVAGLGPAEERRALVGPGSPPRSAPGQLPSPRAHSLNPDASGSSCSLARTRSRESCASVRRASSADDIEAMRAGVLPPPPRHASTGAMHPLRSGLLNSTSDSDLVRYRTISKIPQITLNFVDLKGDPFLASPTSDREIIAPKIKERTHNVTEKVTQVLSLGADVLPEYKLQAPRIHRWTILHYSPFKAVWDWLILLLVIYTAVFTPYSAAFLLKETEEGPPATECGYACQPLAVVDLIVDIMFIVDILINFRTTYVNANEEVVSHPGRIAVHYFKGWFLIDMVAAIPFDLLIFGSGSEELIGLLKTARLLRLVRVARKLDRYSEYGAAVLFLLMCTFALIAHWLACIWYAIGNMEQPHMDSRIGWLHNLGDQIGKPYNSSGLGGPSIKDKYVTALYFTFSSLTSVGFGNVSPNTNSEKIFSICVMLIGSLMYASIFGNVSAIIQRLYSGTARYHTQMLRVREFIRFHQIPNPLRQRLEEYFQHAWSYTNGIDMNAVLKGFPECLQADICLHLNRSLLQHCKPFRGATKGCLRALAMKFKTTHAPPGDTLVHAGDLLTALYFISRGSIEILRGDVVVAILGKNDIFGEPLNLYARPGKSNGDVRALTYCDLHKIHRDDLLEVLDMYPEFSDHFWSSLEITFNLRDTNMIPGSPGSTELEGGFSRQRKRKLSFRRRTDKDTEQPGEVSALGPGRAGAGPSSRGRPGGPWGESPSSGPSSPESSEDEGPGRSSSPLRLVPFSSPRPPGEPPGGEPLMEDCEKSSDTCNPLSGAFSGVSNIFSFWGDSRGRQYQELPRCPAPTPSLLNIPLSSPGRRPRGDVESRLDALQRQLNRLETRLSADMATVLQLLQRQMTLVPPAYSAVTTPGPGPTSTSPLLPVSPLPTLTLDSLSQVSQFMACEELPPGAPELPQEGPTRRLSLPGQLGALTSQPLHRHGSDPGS

Row | Structure (SMILES) | hERG current change (%, negative = inhibition) at 1uM
1 | CCOC(=O)C(C)NC(=O)Cn1ncc2c(=O)oc3ccc(C)cc3c21 (stereo not drawn) | 2.09%
2 | O=C(Nc1ccc(Cl)c([N+](=O)[O-])c1)ONC1=NCCCCC1 | -1.01%
3 | CCC(=O)N1CCN(c2ccc(NC(=O)COc3ccccc3[N+](=O)[O-])cc2)CC1 | 10.1%
4 | CCn1c(SCc2ccc(OC)cc2)nnc1-c1ccncc1 | 4.49%
5 | CCOC(=O)CSc1nnc(NC(=O)CCc2ccccc2)s1 | 11.8%
6 | CC(=O)Oc1ccc2c(=O)c(N3C(=O)c4ccccc4C3=O)c(C)oc2c1C | 11.6%
7 | Cl.O=C(O)c1ccc(Nc2nc(-c3ccccc3)nc3ccccc23)cc1 | 15.4%
8 | O=C(NCc1cc(C(F)(F)F)ccc1F)C1CCC(=O)N(C2CCCCCC2)C1 (stereo not drawn) | 5.87%
9 | CC(=O)N(CN1C(=O)CCC1=O)c1cccc(Cl)c1 | 4.51%
10 | COc1ccc(/C=N/NC(=O)c2cc(-c3ccccc3)nc3ccccc23)cc1O | 11.8%
11 | COc1cccc(-n2cc3c(c2-c2ccccc2)c(=O)n(C)c(=O)n3C)c1 | -12.3%
12 | COc1ccc2c(CCNC(=O)Nc3ccccc3)c[nH]c2c1 | 10.6%
13 | Cc1ccc(Nc2nc(N)nc(CN3CCc4ccccc4C3)n2)cc1 | -31.5%
14 | COc1ccc(CCn2c(-c3ccc(Cl)cc3)n[nH]c2=S)cc1OC | 17.3%
15 | COc1ccc(S(=O)(=O)N(C)C)cc1NC(=O)[C@H](Cc1ccccc1)N1C(=O)c2ccccc2C1=O | 2.05%
16 | N#C/C(=C\c1cccs1)C(=O)c1ccccc1Cl | 10.5%
17 | Cn1c(=O)c2c(ncn2CCOc2ccc(F)cc2)n(C)c1=O | 20.7%
18 | CC(=O)Nc1ccc(S(=O)(=O)Nc2ccc(Cc3ccncc3)cc2)cc1 | 7.78%
19 | O=C(CN(C(=O)CNC(=O)c1ccco1)c1ccc(Cl)c(Cl)c1)NC1CCCCC1 | 6.31%
20 | N#Cc1c(-c2ccc3c(c2)OCO3)csc1N | 14.3%
21 | COCc1cc(C)nc2sc(C(=O)Nc3ccccc3OC)c(N)c12 | 14.8%
22 | Cc1ccccc1-c1nc(CS(=O)(=O)CC(=O)NCc2ccc3c(c2)OCO3)c(C)o1 | 8.28%

Row | Structure (SMILES) | hERG current change (%, negative = inhibition) at 1uM
23 | COc1ccccc1CCc1nnc(CCC(=O)NCC[C@@H]2C[C@@H]3C=C[C@H]2C3)o1 | -3.8%
24 | COc1ccc(F)cc1C(=O)C1CCCN(C(=O)C2=C(C)OCCO2)C1 (stereo not drawn) | 14.5%
25 | Cn1c(=O)oc2cc(S(=O)(=O)N3CCN(c4ccccc4F)CC3)ccc21 | 9.78%
26 | COCCn1c(Cc2ccccc2)nnc1SCC(=O)NC1CC1 | 11.6%
27 | Cc1ccc(C(=O)Nc2ccncc2)cc1S(=O)(=O)N1CCOCC1 | 13.4%
28 | Cc1ccc(/C=C(\C#N)C(=O)NC(C)C)o1 | 7.59%
29 | COc1ccc(-c2[nH]ncc2CN2CCC(C(=O)N3CCOCC3)CC2)c(F)c1 | 7.21%
30 | Cc1ccc(-n2ncc3c2CCCC3NC(=O)c2ccoc2)cc1C (stereo not drawn) | -78.5%
31 | O=C(CN1CCC(C(=O)c2cccc(Cl)c2)CC1)Nc1cccc(C(=O)O)c1 | 8.11%
32 | Oc1ccc(-c2n[nH]c(=S)n2Cc2ccccc2)cc1 | 7.69%
33 | COC(=O)c1ccc(C(=O)NC(=S)Nc2ccc3nc(SC)sc3c2)cc1 | -10.5%
34 | CCOc1ccc(N(Cc2ccc(C(=O)O)cc2)S(=O)(=O)c2ccc(C)cc2)cc1 | 3.02%
35 | Cc1ccc(C(=O)C2CCN(CC(=O)Nc3ccccc3C)CC2)cc1 | -31.8%
36 | COc1ccc(OCCSc2ncnc3nc[nH]c23)cc1 | 10.6%
37 | Cc1c(C(C)C[C@H](C)O)oc(=O)c2c1Oc1c(C)c(C(C)C[C@H](C)O)oc(=O)c1C2 (stereo partly drawn) | 9.02%
38 | CC(=O)NN1C(=O)/C(=C\c2ccc(C)cc2)SC1=S | 13.8%
39 | CCc1cc(C(=O)Nc2cc(S(=O)(=O)N(CC)CC)ccc2N2CCN(C)CC2)sc1C | 4.55%
40 | Cc1oc(-c2ccc3c(c2)OCCO3)cc1C(=O)NCC(=O)O | 5.32%
41 | COCCNC(=O)CS(=O)Cc1nc(-c2ccc(Cl)cc2)oc1C (stereo not drawn) | 11%
42 | Cc1ccsc1C(=O)N1CCCC(CCC(=O)N2CCN(c3ccccn3)CC2)C1 (stereo not drawn) | 12.6%
43 | O=C(CN1C(=O)NC2(CCCC2)C1=O)Nc1ccc(Cl)c(C(F)(F)F)c1 | 9.87%
44 | CCSc1nnc(Cc2cc(=O)[nH]c(=O)[nH]2)n1-c1cc(C)ccc1C | 14.8%

Row | Structure (SMILES) | hERG current change (%, negative = inhibition) at 1uM
45 | CCOC(=O)C1CCN(C(=O)Cn2cc(C(=O)OC)c3ccccc32)CC1 | -7.99%
46 | O=C(c1cc(C2CC2)on1)N1CCCC(N2CCN(c3cccc(C(F)(F)F)c3)CC2)C1 (stereo not drawn) | 4.67%
47 | CC(NC(=O)C1CC1)c1ccc(-c2ccccc2)cc1 (stereo not drawn) | 8.33%
48 | CCC(=O)N(CCN1CCOCC1)Cc1cc2cc3c(cc2nc1Cl)OCO3 | -31.8%
49 | Oc1c(Cl)cc(Cl)cc1/C=N/NC(=S)NC1CC2C=CC1C2 (stereo not drawn) | 6.11%
50 | Cc1[nH]c(=O)c(C#N)cc1-c1csc(-c2ccccc2)n1 | 14.1%
51 | COc1ccccc1C(=O)NCC(=O)OCCCOC(=O)CNC(=O)c1ccccc1OC | 13.1%
52 | CN(C)c1ccc(/C=[N+](\[O-])C(C)(C)/C=N/O)cc1 | -4.15%
53 | CCCn1[nH]cc(SC)c(=O)c1=O | -1.14%
54 | COc1ccc(C(C)=O)cc1COC(=O)C(CO)NS(=O)(=O)c1ccc(Br)cc1 (stereo not drawn) | 12.7%
55 | Cn1c(=O)[nH]c(=O)c2c1nc(CN1CCN(c3cccc(Cl)c3)CC1)n2CCc1ccccc1 | 9.17%
56 | COc1cccc(/C=N\NC(=O)c2sc(N)nc2C)c1OC | 11%
57 | Cc1ccc2[nH]c3c(=O)n(Cc4ccncc4)cnc3c2c1 | 4.77%
58 | O=C(/C=C\c1ccco1)Oc1cccc2cccnc12 | -27.2%
59 | CC(C)OC(=O)c1ccc2nc3ccccc3nc2c1 | 18.9%
60 | Cc1nn(C(C)C(=O)NCc2cccs2)c(=O)c2nn(-c3ccccc3)c(C)c12 (stereo not drawn) | -10.2%
61 | COc1cccc2c(Cl)c(CC=C(Cl)Cl)c(C)nc12 | 19.1%
62 | CCc1c(C)[nH]c2c1C(=O)C(CN1CCOCC1)CC2.Cl (stereo not drawn) | 2.29%
63 | O=C(NCCc1cccs1)C12CN(Cc3ccccc3)CC1C(c1cccc([N+](=O)[O-])c1)=NO2 (stereo not drawn) | 21.2%
64 | COc1ccc(CCNC(=O)C2CCN(C(=O)c3ccc(C(C)(C)C)cc3)CC2)cc1 | 8.38%
65 | CC1(C)CC(=O)N(c2cc(Cl)ccc2Cl)C(=O)C1 | 10.7%
66 | COc1nc(OCCNC(=O)Nc2ccccc2)nc(N(C)C)n1 | -0.757%

Row | Structure (SMILES) | hERG current change (%, negative = inhibition) at 1uM
67 | CCC(C(=O)NCC1CCCO1)n1nc(C)c2sc3ccccc3c2c1=O (stereo not drawn) | 4.25%
68 | Cn1c(N)c(C(=O)CSc2nn(-c3ccc(F)cc3)c(=S)s2)c(=O)n(C)c1=O | 11.8%
69 | CCOC(=O)N1CCC(N2Cc3cccc(C(=O)N4CCN(c5cccc(C)c5C)CC4)c3C2=O)CC1 | 0.229%
70 | C/C(Cc1ccccc1)=N\NC(=O)CNC(=O)c1ccccc1Cl | 17.5%
71 | CSc1ccc(S(=O)(=O)NCc2ccccc2C)cc1 | 6.77%
72 | O=S(=O)(c1ccc2c(c1)OCCO2)N1CCc2ccccc21 | 7.04%
73 | CCN=C(NCC)SC1CC(=O)N(c2ccc(F)cc2)C1=O (stereo not drawn) | 8.77%
74 | CCN(CC(=O)Nc1ccccc1C(F)(F)F)C(=O)c1ccccc1Cc1ccccc1 | 8.08%
75 | CS(=O)(=O)c1ccc2nc(NC(=O)c3ccccc3Cl)sc2c1 | 7.08%
76 | O=C(CCCn1c(=S)[nH]c2ccsc2c1=O)NCc1ccco1 | 2.08%
77 | COc1ccc(OCCOCC(O)CN2CCOCC2)cc1.Cl (stereo not drawn) | 6.96%
78 | C=CCc1ccc(OCCCN2CCCC(C)C2)c(OC)c1.O=C(O)C(=O)O (stereo not drawn) | -36.6%
79 | Cc1ccc(C)n1-c1nccc(-c2cccs2)n1 | 17.7%
80 | CCN1CCN(P2(=O)C=C(c3ccccc3)OC(c3ccccc3)=C2)CC1 | -86.5%
81 | Cc1cccc(-n2ccc(=O)c(C(=O)Nc3ccc(S(=O)(=O)Nc4nccc(C)n4)cc3)n2)c1 | 19.7%
82 | O=C(CN1C(=O)NC2(CCCCCCC2)C1=O)N1CCc2ccccc2C1 | -1.56%
83 | CC(C)(C)N(Cc1ccccc1)C(=O)COC(=O)c1ccccc1SCC(=O)N1CCCC1 | 1.28%
84 | COc1ccc(Br)cc1CN(C)C(=O)Cc1ccc(OC)c(S(=O)(=O)N2CCOCC2)c1 | -3.91%
85 | CC1(C)CC(=O)N(c2cc(Cl)cc(Cl)c2)C(=O)C1 | 6.38%
86 | COc1cc(C2CC(=O)Nc3cc(C)c(C)cc32)cc(OC)c1OC (stereo not drawn) | 14.3%
87 | O=C(O)C(=O)O.c1ccc2c(c1)ncn2CCCCOc1ccc2c(c1)CCC2 | 8.87%
